Among the data in the supplement of paper PMC10126150 are switch fluorescence ratio values, retold here.

This series deals with ATP. As to the kind of experiment: switch fluorescence ratio, 500 uM ATP over buffer (Cy3 cluster intensity, sum of 5 cycles each) (fold (ratio)); higher = stronger signal-on switching upon ATP binding; sequences stand for … in TCGTCGGCAGCGTCAGATGTGTATAAGAGACAGTTTTTTTTTTTTTTTTTTTTTTTTT…TC. The note with it: aptamer strand: ATP DNA aptamer (quencher-CACCTGGGGGAGTATTGCGGAGGAAGG + anchor), 100 nM annealed; ATP concentration: 500 uM; one replicate. A digest of the protocol: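 The quencher-labelled ATP aptamer, at 100 nM, was annealed to Cy3-labelled switching-strand clusters on a modified Illumina MiSeq flow-cell. The clusters were imaged in selection buffer, then after 15 min with 500 uM ATP at 22 °C, and this buffer/ATP cycle ran five times with NaOH stripping and re-annealing between runs. Per-cluster fluorescence ratios, summed target-cycle over summed buffer-cycle Cy3 intensity, were averaged per switch-domain sequence. Clusters outside 100-1000 RFU were excluded.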

Values marked as one replicate rest on one cluster of the flow cell; about a third of the high ones do not repeat.
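Also: ATP exposure 15 min at 22 °C before imaging.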

On to TTGGGCTCG, for which the switch fluorescence ratio stood at 1.08.

As for CTATGGACAT, the switch fluorescence ratio turned out to be 0.994.

On to AGGGCTAGTG, for which the switch fluorescence ratio turned out to be 0.985.

Consider CATCTAACGG, for which the switch fluorescence ratio was determined as 1.05.

Regarding CTTCTAAATA, the switch fluorescence ratio amounted to 1.09.

As to CTCGGATCG, the switch fluorescence ratio was 0.957.

GTATGGTATT: the switch fluorescence ratio was 1.02.

For the sequence CACGGGTTGG, the switch fluorescence ratio amounted to 0.977.

Consider GAACCAGTTC, for which the switch fluorescence ratio was found to be 0.988.

With TGTGACTAGC, the switch fluorescence ratio is 0.985.

In the case of CGGGCACGGC, the switch fluorescence ratio is 1.02.

CAATGGCTGG: the switch fluorescence ratio was 1.06.

Consider AGGTCGAGGT, for which the switch fluorescence ratio was 1.02.

Consider TGCTGAACGA, for which the switch fluorescence ratio came out at 1.01.

Turning to ATTGGTCTAG, the switch fluorescence ratio is 1.05.

Consider TGTCCGTATA, for which the switch fluorescence ratio amounted to 1.1.

On to ACTCCTGTAT, for which the switch fluorescence ratio is 1.03.

ACCACTGGGG: the switch fluorescence ratio worked out at 1.03.

Consider CTTGTCGCGG, for which the switch fluorescence ratio was determined as 0.994.

CAACCTTATG: the switch fluorescence ratio was 1.

Consider TACGAACATG, for which the switch fluorescence ratio was 1.24.

As for ACACTACTTG, the switch fluorescence ratio came out at 1.16.

In the case of AAGCTGAACA, the switch fluorescence ratio was 1.

Take CTCCGATCCG: the switch fluorescence ratio turned out to be 1.32.

Regarding CTTGGCAACC, the switch fluorescence ratio worked out at 0.996.

As for GGTCGCCCCC, the switch fluorescence ratio was 1.

Turning to AAGCCCGTAG, the switch fluorescence ratio turned out to be 1.07.

As for ATAAGATGGT, the switch fluorescence ratio worked out at 1.07.

As to CCTTGGAACA, the switch fluorescence ratio came to 1.01.

In the case of ATTTGGCGTC, the switch fluorescence ratio stood at 1.

For the sequence TTTTAACAT, the switch fluorescence ratio stood at 1.03.

Consider GGCTTGAAAC, for which the switch fluorescence ratio worked out at 1.02.
